Test results: the supplement of paper PMC12217912
The list shows a part of the results. The full chains were built here from the parent and the listed change. Values near 0.05 are background.

B1: TEV protease; numbered along this chain (parent)
chain: MGESLFKGPRDYNPISSSICHLTNESDGHTTSLYGIGFGPFIITNKHLFRRNNGTLVVQSLHGVFKVKDTTTLQQHLVDGRDMIIIRMPKDFPPFPQKLKFREPQREERICLVTTNFQTKSMSSMVSDTSCTFPSGDGIFWKHWIQTKDGQCGSPLVSTRDGFIVGIHSASNFTNTNNYFTSVPKNFMELLTNQEAQQWVSGWRLNADSVLWGGHKVFMVKPEEPFQPVKEATQL

Variants of: B1
Experiment: raw area under fraction-flipped curve 0-4 h after induction (AUC4h, not background-subtracted), DNA-recorder readout of cleavage of the substrate (dimensionless); higher = more cleavage of the substrate by the protease variant
Conditions: temperature: 34 °C; time window: 0-4 h after rhamnose induction
Description: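 In vivo DNA recorder in E. coli TOP10(DE3) ΔrhaA at 34 °C. Each TEVp single-site mutant (parent TEVp 0) is paired with a single-site variant of the 7-mer TEVs (canonical ENLYFQ|S). The substrate sits between flexible linkers in a Bxb1-sfGFP-TEVs-SsrA fusion, so cleavage stabilises Bxb1 and speeds flipping of a recombination array, read by NGS. The value is the raw area under the fraction-flipped curve over 0-4 h after rhamnose induction (AUC4h), with ≥20 reads per time point. It is not background-subtracted; inactive controls average about 0.047.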
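Also: Bxb1 expression induced with 0.2% (w/v) L-rhamnose at OD600 near 0.5, cultures sampled hourly, flipped fraction per protease–substrate barcode pair counted by paired-end Illumina sequencing.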

Row | Variant | area with substrate ANLYFQS | area with substrate CNLYFQS | area with substrate DNLYFQS | area with substrate FNLYFQS | area with substrate GNLYFQS | area with substrate HNLYFQS | area with substrate INLYFQS | area with substrate KNLYFQS | area with substrate LNLYFQS | area with substrate NNLYFQS | area with substrate PNLYFQS | area with substrate QNLYFQS | area with substrate RNLYFQS | area with substrate SNLYFQS | area with substrate TNLYFQS | area with substrate VNLYFQS | area with substrate WNLYFQS | area with substrate YNLYFQS | area with substrate MNLYFQS
1 | C152E | 0.0579 | 0.0465 | 0.0614 | 0.0566 | 0.061 | 0.0542 | 0.0466 | 0.078 | 0.0645 | 0.0593 | 0.0528 | 0.0568 | 0.061 | 0.0601 | 0.0633 | 0.0487 | 0.0668 | 0.0514 | 
2 | C152G | 0.0536 | 0.0625 | 0.0631 | 0.0571 | 0.0677 | 0.0601 | 0.0562 | 0.0729 | 0.056 | 0.0628 | 0.0618 |  |  |  | 0.0691 | 0.0502 | 0.0573 | 0.0518 | 0.0637
3 | C152I | 0.0649 | 0.0519 | 0.0564 | 0.0548 | 0.0749 | 0.0521 | 0.0809 | 0.0738 | 0.0795 |  | 0.0669 | 0.0591 |  | 0.0642 | 0.0517 | 0.069 | 0.0517 | 0.0451 | 0.0588
4 | C152L | 0.059 | 0.0521 | 0.0461 |  | 0.057 | 0.0496 |  |  | 0.0525 | 0.0512 | 0.0629 |  |  |  |  |  | 0.0567 |  | 0.0649
5 | C152V | 0.0543 | 0.0624 | 0.0544 | 0.0592 | 0.0728 | 0.0549 | 0.0563 | 0.0562 | 0.0538 |  | 0.0573 |  |  |  | 0.0591 |  | 0.0655 | 0.044 | 
6 | C152W | 0.0496 | 0.0586 | 0.0475 | 0.058 |  | 0.0563 | 0.062 | 0.0673 | 0.0489 |  | 0.0522 |  |  | 0.0428 | 0.0598 | 0.0614 | 0.0507 | 0.0397 | 
7 | V157F | 0.0565 | 0.0504 | 0.0562 | 0.0576 | 0.048 | 0.0479 | 0.0529 | 0.0536 | 0.0622 |  | 0.0514 |  |  | 0.0498 | 0.0648 | 0.0601 | 0.0595 | 0.0546 | 0.0551
8 | R160D | 0.0613 | 0.074 |  |  | 0.0675 | 0.0658 | 0.0673 | 0.0758 | 0.0658 | 0.066 | 0.0719 |  | 0.0691 |  | 0.117 | 0.0513 | 0.0588 | 0.0655 | 0.0667
9 | R160I | 0.0722 | 0.0593 | 0.0749 | 0.0634 | 0.0672 | 0.0643 | 0.0552 | 0.067 | 0.0628 | 0.0663 |  |  | 0.0197 | 0.0657 | 0.0538 | 0.0531 | 0.0631 | 0.0619 | 0.0655
10 | R160K | 0.0634 | 0.0724 |  | 0.0659 |  | 0.0702 |  | 0.066 | 0.0704 |  |  |  | 0.0637 | 0.0766 | 0.0546 |  |  | 0.0533 | 0.0715
11 | R160V | 0.0748 | 0.0679 | 0.0798 | 0.0605 | 0.0741 | 0.0667 |  |  | 0.0691 | 0.0681 | 0.0661 |  |  | 0.0748 | 0.069 | 0.0739 | 0.0653 | 0.0639 | 0.0651
12 | R160Y | 0.0662 | 0.102 | 0.113 |  | 0.0634 | 0.0751 |  |  | 0.0395 | 0.0396 | 0.0576 |  |  | 0.0852 | 0.07 | 0.0558 | 0.0551 | 0.0265 | 
13 | D161V | 0.0425 | 0.0444 | 0.0582 | 0.0597 | 0.0682 | 0.0511 | 0.0464 | 0.0312 | 0.0548 | 0.046 | 0.0565 |  | 0.0495 | 0.0519 | 0.053 |  | 0.0574 | 0.0512 | 0.0577
14 | G162C | 0.0484 | 0.0521 | 0.0891 | 0.0919 | 0.0645 | 0.0622 | 0.0608 | 0.0653 | 0.056 |  | 0.0659 | 0.0435 |  | 0.0631 | 0.0742 | 0.0758 | 0.0593 | 0.0606 | 0.0689
15 | I164A | 0.0519 | 0.0512 | 0.0715 |  |  | 0.0455 |  | 0.0505 | 0.0512 |  | 0.0473 |  |  | 0.0562 |  | 0.0512 | 0.0831 | 0.0323 | 
16 | V165E | 0.0486 | 0.0511 | 0.0553 | 0.051 |  | 0.0513 | 0.0595 | 0.0561 | 0.053 | 0.0395 | 0.0522 |  |  | 0.0181 | 0.006 | 0.0657 | 0.0407 | 0.0493 | 0.0554
17 | I167K | 0.0575 | 0.0522 | 0.0505 | 0.057 | 0.0581 | 0.0493 | 0.0532 | 0.0537 |  | 0.0581 | 0.0591 |  |  | 0.0594 | 0.0578 | 0.0449 | 0.0592 | 0.0506 | 0.0396
18 | H168E | 0.0533 | 0.0683 | 0.0584 |  |  |  | 0.0577 | 0.0665 | 0.0551 |  | 0.0505 |  |  | 0.055 | 0.0622 | 0.0504 | 0.0539 |  | 0.063
19 | H168F | 0.0573 | 0.0677 |  | 0.0585 |  |  | 0.0697 |  |  |  | 0.0649 |  |  | 0.0558 | 0.0502 | 0.0767 | 0.0531 | 0.0622 | 
20 | H168I | 0.057 | 0.053 | 0.0664 |  | 0.0666 | 0.0559 | 0.0529 | 0.0468 | 0.0618 | 0.0543 | 0.0482 | 0.0548 | 0.106 | 0.0665 | 0.0537 |  | 0.0522 | 0.0485 | 0.0485
21 | H168L | 0.0739 | 0.0612 |  | 0.0636 |  | 0.0632 | 0.0629 | 0.066 | 0.0462 | 0.0593 | 0.0774 |  |  | 0.057 | 0.0502 |  | 0.0591 | 0.0593 | 
22 | T174D | 0.0645 | 0.089 | 0.0676 | 0.0436 |  | 0.0616 | 0.058 | 0.073 | 0.0706 | 0.0681 | 0.0757 |  | 0.0704 | 0.0681 | 0.0646 | 0.0765 | 0.0631 | 0.0599 | 0.0483
23 | N175K | 0.0727 | 0.0734 | 0.0767 | 0.0564 | 0.0873 |  | 0.0657 | 0.0695 | 0.0674 | 0.0652 | 0.0554 | 0.0949 | 0.0613 | 0.0661 |  | 0.075 | 0.0537 | 0.062 | 0.0606
24 | T176D | 0.0615 | 0.0598 | 0.0586 |  |  | 0.0628 | 0.0618 | 0.0665 |  |  |  |  |  | 0.0547 |  |  |  |  | 0.0586
